# Assay results taken from the RNAGym collection of RNA variant scans (doi:10.1073/pnas.2313332121).
# Variants at the floor of the assay are shown more often than the library holds them.
# B1: TPR 5TU (parent)
# chain: GGAUCUUCUCGAUCUAACAAAAAAGACAAAUCUGCCACAAAGCUUGAGAGCAUCUUCGGAUGCAGAGGCGGCAGCCUUCGGUGGCGCGAUAGCGCCAACGUUCUCAACUAUGACACGCAAAACGCGUGCUCCGUUGAAUGGAGUUUAUCAUG
# Variants of: B1
# Experiment: polymerase ribozyme fitness, log enrichment relative to wild type (log ratio); higher = more active; in vitro selection for triplet polymerase activity
# How it was run: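 Each subunit of a heterodimeric triplet polymerase ribozyme was mutagenized into a library by PCR, transcribed, and subjected to one round of in vitro selection, run in triplicate. Libraries were annealed with a biotinylated primer, the partner subunit and triplets, incubated frozen at −7 °C, and extended constructs were gel-excised, captured on streptavidin beads and recovered by RT-PCR. Input and output libraries were sequenced on Illumina, keeping genotypes with ≥10 input reads and ≥1 read per output. Fitness is log base 2 of genotype enrichment divided by wild-type enrichment, from inverse-variance-weighted replicate averages.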
row,Variant,polymerase ribozyme fitness (log ratio)
1,A21C G83C C87A G94U G100U G141U,≤ -4.2
2,A21C G86A,-0.32
3,A21C U44A C75A C96A,-3.98
4,A21C U53A U55A G59C G84C U111C,≤ -4.2
5,A21C U53A U56A C69U A98U G117C C118G U134A,≤ -4.2
6,A21C U56G A89C C96A C116G A119C,-2.02
7,A21C U77G C96G C103G A147U,≤ -4.2
8,A21G A22U A24G A39U C87A C96A U148C,≤ -4.2
9,A21G A23G A30G G68A G71C C76A U77A G92U C93U A97G A150G,≤ -4.2
10,A21G A24G A47G G94C U102G C118U A121U,≤ -4.2
11,A21G A26U A29C A52G C57U G88C G92A A110U,≤ -4.2
12,A21G A26U U56C A113G,≤ -4.2
13,A21G A28G G42U C57U U148C,≤ -4.2
14,A21G A29G U53A C76A,≤ -4.2
15,A21G A29U C85U G100A U104C G136U,≤ -4.2
16,A21G A37U G68A C87U A107U U134G,≤ -4.2
17,A21G A40C G86U A119G A150C,≤ -4.2
18,A21G A40U A52C G58U G68C G88C G92A G112U U135A,≤ -4.2
19,A21G A41C G46A G65U,≤ -4.2
20,A21G A47C C51U C87U U90G,≤ -4.2
21,A21G A91C,≤ -4.2
22,A21G A91G G117U A142C,≤ -4.2
23,A21G A138C,-4
24,A21G C27A G46A A73G C87A,≤ -4.2

row,Variant,polymerase ribozyme fitness (log ratio)
1,A21G C27U C57G C72A C93G,≤ -4.2
2,A21G C27U G65U G83U,≤ -4.2
3,A21G C35A U61A U78C G84A C87G G140U,≤ -4.2
4,A21G C35U A66U G67A A91U,≤ -4.2
5,A21G C38U,0.63
6,A21G C57G C87G,≤ -4.2
7,A21G C76G A91C G92A A113C,≤ -4.2
8,A21G C76G A97U,≤ -4.2
9,A21G C85U C96U C105U A106C A138G,≤ -4.2
10,A21G C96G,0.474
11,A21G C114U,-1.69
12,A21G G25C C35U U101G C108G,≤ -4.2
13,A21G G25U C85U C99U U134A,≤ -4.2
14,A21G G25U G50U C54U A73G C93A C108G C129G U135G,≤ -4.2
15,A21G G42C C63U A89U C99A A106G A138C,≤ -4.2
16,A21G G46U,0.452
17,A21G G50A G59A C87A,≤ -4.2
18,A21G G50C G84A A89U,≤ -4.2
19,A21G G65C C85U,≤ -4.2
20,A21G G74C C75A C95U,≤ -4.2
21,A21G G81C C87G G92A,≤ -4.2
22,A21G U31A C51G G71U A89C A106G A110U A138G,≤ -4.2
23,A21G U31A C95A,0.669
24,A21G U33G C63U G67U C79G C87A A120U,≤ -4.2

row,Variant,polymerase ribozyme fitness (log ratio)
1,A21G U33G U102G G128A G133U,≤ -4.2
2,A21G U44A G68U G83U A106G A115U C118A A119C C123U U144G,≤ -4.2
3,A21G U55C G59C C75A U78C G84C C114G U135G,≤ -4.2
4,A21G U56C G74C U104G A142G,≤ -4.2
5,A21G U77A A91G,≤ -4.2
6,A21G U82A C96A U101G A121U,0.493
7,A21G U139A,-3.9
8,A21U A22C G42C C85G U102G,≤ -4.2
9,A21U A22U A26U G46A C69G G83C A106C C116A G141C,≤ -4.2
10,A21U A22U C27G C38U G59C G81A G88C C118A A147C U151G,≤ -4.2
11,A21U A22U G42A G70C C93U G140C G152U,≤ -4.2
12,A21U A22U U31A C38U U102G C123G,≤ -4.2
13,A21U A23C G58A C63A G84U U90A C118A,≤ -4.2
14,A21U A23G,-2.94
15,A21U A24C C79U G80C C85U C93U,≤ -4.2
16,A21U A24C U31G A49C C51U U56A G84A G88C A89G A119G G124U,≤ -4.2
17,A21U A24G A37U G80C,≤ -4.2
18,A21U A24G U55G G71A G84A C93U U101G,≤ -4.2
19,A21U A24U U44A U53G U78G A97U A137C G141C,≤ -4.2
20,A21U A28C U53A G88C,≤ -4.2
21,A21U A28G U44A G88C,≤ -4.2
22,A21U A29G G68U A122G,≤ -4.2
23,A21U A30U G94A C95A G141C U146A A150U,≤ -4.2
24,A21U A30U U44A C63U G92U C96A U104G A110C,≤ -4.2

row,Variant,polymerase ribozyme fitness (log ratio)
1,A21U A39G G92A,≤ -4.2
2,A21U A40G A60G C96G U146G,-3.99
3,A21U A40G G70A A91U C93G C125G,≤ -4.2
4,A21U A41G C95A C96A,-0.65
5,A21U A41U U111A A121U A142C A150G,≤ -4.2
6,A21U A47U C93U,-0.679
7,A21U A49C G58C G59C G94U U101G C129G U139G,≤ -4.2
8,A21U A60G U78A U148C,≤ -4.2
9,A21U A60U C103G C108U A142G U148C,≤ -4.2
10,A21U A66G A107U A113C,≤ -4.2
11,A21U C27A G58U G88U A142C,≤ -4.2
12,A21U C27U C87G G88C G152A,≤ -4.2
13,A21U C32A C51U A73G U134G,≤ -4.2
14,A21U C32G G50A G83A G136A,≤ -4.2
15,A21U C32G U55A G83U,≤ -4.2
16,A21U C35A A52G A60U A91C,≤ -4.2
17,A21U C35U A49C U134A,≤ -4.2
18,A21U C35U C43U U53A A60U G83C A98G A113G,≤ -4.2
19,A21U C35U U77A C85U G92U C93G C118G A150U,≤ -4.2
20,A21U C36A,-3.4
21,A21U C36G C51U U55C G92U U148A,≤ -4.2
22,A21U C36G U56C C75U C87G,≤ -4.2
23,A21U C38A U102A A120U A147C,-2.82
24,A21U C43A U78G G84U C93U C103G A115G,≤ -4.2

row,Variant,polymerase ribozyme fitness (log ratio)
1,A21U C43U,≤ -4.2
2,A21U C51U G74A A119U,≤ -4.2
3,A21U C54U U146A,-0.081
4,A21U C57A A142U,-0.38
5,A21U C57A C87G,≤ -4.2
6,A21U C57G G83A C85U G88U G124U C125U G136A,≤ -4.2
7,A21U C63A C85U U90A G94A C103U G143U,≤ -4.2
8,A21U C69U C96A C129A U135A G143U,-0.753
9,A21U C72U C79U G94C U146A,≤ -4.2
10,A21U C75A C125A A137C U144G,≤ -4.2
11,A21U C79U U101G U102G,≤ -4.2
12,A21U C96A,-0.443
13,A21U C99U C116U C125U,-1.64
14,A21U G25C G59U G141C A150G,≤ -4.2
15,A21U G34A C69A C132G,≤ -4.2
16,A21U G34U C51U G86A A89U U145G,≤ -4.2
17,A21U G42C C75U G86C,≤ -4.2
18,A21U G48A U55A C75U G83C A89G A98U C105U G117A U144C,≤ -4.2
19,A21U G50U,0.281
20,A21U G50U C85U G86U G88U C129G G133C A142G,≤ -4.2
21,A21U G58A G59C G62A G88C C118G C123G U139A,≤ -4.2
22,A21U G59C C69U C93G G100A G124U,≤ -4.2
23,A21U G59C G126U,0.721
24,A21U G59U C105U C129A,-2.46

row,Variant,polymerase ribozyme fitness (log ratio)
1,A21U G65U,≤ -4.2
2,A21U G68A C79A G92C,≤ -4.2
3,A21U G68A C96U U145G,≤ -4.2
4,A21U G83U G84U G117U U151G,≤ -4.2
5,A21U G141U,1.9
6,A21U U33A A64U C85G A91C C105U C108G G126U,≤ -4.2
7,A21U U44G C85G C93G A97C,≤ -4.2
8,A21U U55A C85U U148A,-4.07
9,A21U U56A C76U C93A G100C C114G,≤ -4.2
10,A21U U61G G80A U101A,-2.86
11,A21U U77G U78C G84A,≤ -4.2
12,A21U U78C G86C U148A,≤ -4.2
13,A21U U104C,0.212
14,A22C A24C A26U U56A C93U U134G A142C G152U,≤ -4.2
15,A22C A24G A26U A52G G80A C85G G94U C123U,≤ -4.2
16,A22C A24G A28C C51A G65A C87A C129G C131U,≤ -4.2
17,A22C A24U G50C G67U U78A C95A A113U,≤ -4.2
18,A22C A26U U56A G59C C87G U111C,≤ -4.2
19,A22C A28C,≤ -4.2
20,A22C A28C G83A G141A A147C,≤ -4.2
21,A22C A28U A37G U45A C69U A73U G80U C95A A150C,≤ -4.2
22,A22C A28U A121U,≤ -4.2
23,A22C A29G G84A A97U A115C G141A,≤ -4.2
24,A22C A29U C51G U78G C87G C96A C114U G124A U139A,≤ -4.2

row,Variant,polymerase ribozyme fitness (log ratio)
1,A22C A29U U33C A47C U53G C95U C105A C118U,≤ -4.2
2,A22C A30G A37G C38A C69A C95U A98U A120U,≤ -4.2
3,A22C A37G C76U C85U C116G A122C G143U,≤ -4.2
4,A22C A37G U44A U56A C69U C87U,≤ -4.2
5,A22C A39C U53A G68A A91U U146A,≤ -4.2
6,A22C A41U U61A C99U,≤ -4.2
7,A22C A47C C51G A64G C72A C95U A107G A113U U135A,≤ -4.2
8,A22C A47C C79U U82A,≤ -4.2
9,A22C A47C U61A G83C A142C,≤ -4.2
10,A22C A49C A115G,≤ -4.2
11,A22C A52C C69G C95U A98U C118G C125A C132G G133A U148G,≤ -4.2
12,A22C A52C G81U,-1.38
13,A22C A52C U53A G62C G67C C69A A89G C96U A106U C125G U134A,≤ -4.2
14,A22C A52U G58C U61G G65U G80U C96U,≤ -4.2
15,A22C A66G A73G,≤ -4.2
16,A22C A137G,-2.58
17,A22C C32G C79U C87A C96A C116A U134G,≤ -4.2
18,A22C C32U C96A U104C C108G,≤ -4.2
19,A22C C35A U55A C57U G86U A119U,≤ -4.2
20,A22C C35G U44A A60G C76A C95U,≤ -4.2
21,A22C C36A G58C C87A G143U,≤ -4.2
22,A22C C36A G133C,≤ -4.2
23,A22C C36U G42C A73C C95A,≤ -4.2
